# Reference: PubChem BioAssay AID624171 (National Center for Advancing Translational Sciences (NCATS), 2012)
# About 1,200 (0.29%) of roughly 410,000 compounds were called active. The inconclusive results got no clear call from the source; some entries with a clear call stand among them for comparison. Calls come from the whole dose curve; as a rule, active = well fitted activation curve with a large enough effect; inconclusive = small, poorly fitted or top-dose-only effect; inactive = flat fitted curve, though single readings scatter. A potency beside an inconclusive call is a rough fit, not a confirmed value.
# Assay: qHTS of Nrf2 Activators; note: nearly all actives have a fitted effect of over 65% in size; for activation: % of control where 0% means no effect
# Conditions: AREc32 ARE-luciferase reporter (MCF7-derived line), luminescence, 24 h; activation: at 46.1 µM (top of the series)
# Procedure, shortened: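 Nrf2 activation is followed as ARE-luciferase induction in the AREc32 line after one day of compound treatment; luminescence is read with Steady-Glo.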
# Potency is the fitted concentration of half-maximal effect; tags give direction and shape of the fitted curve.
Compound,Potency,activation
O=c1c(-c2ccco2)[n+]([O-])c2ccccc2n1OCc1ccccn1,"inconclusive: 15.8 µM [activator, partial curve, poor fit]",
COc1cc(CNC(=O)Nc2nnc([C@@H]3C[C@H](O)[C@@H](CO)O3)s2)cc(OC)c1OC,inactive,
COc1ccc(-c2coc3cc(OC(C)=O)ccc3c2=S)cc1,inactive,
Cc1c([N+](=O)[O-])c([N+](=O)[O-])nn1CC(=O)NCCc1ccccc1,"inconclusive: 17.8 µM [activator, single point]",
O=C(Oc1ccc(Cl)cc1N1C(=O)CCC1=O)c1ccco1,"inconclusive: 15.8 µM [activator, single point]",
COc1ccc(-c2ccnc3c(C(=O)O)cnn23)cc1,inactive,
COc1ccccc1/C=C/C(=O)NC(=S)NC(C)C,"inconclusive: 31.6 µM [activator, single point]",
c1ccc2c(-c3nc4ncccc4o3)cccc2c1,"inconclusive: 8.91 µM [activator, partial curve]",
CC(=O)c1cccc(-c2ccnc3c2CC(C(=O)NCc2ccco2)O3)c1 (centres undefined),,inactive: -0.0413% [at 9.22 µM]
NC(=O)Cc1ccc2sc(-c3ccccc3)nc2c1,"inconclusive: 1.12 µM [activator, partial curve, poor fit]",
O=c1/c(=C/c2ccco2)sc2n1CN(c1cccc(Br)c1)CN=2,"inconclusive: 14.1 µM [activator, single point]",
O=C(Nc1ccc2ccccc2n1)c1ccc(Cl)cc1,"inconclusive: 14.1 µM [activator, single point]",
O=C1/C(=C/c2ccncc2)SC(=S)N1Cc1ccccc1,"inconclusive: 31.6 µM [activator, single point]",
COc1ccc(CCNC(=O)CCS(=O)(=O)Cc2ccccc2C)cc1OC,inactive,
C=C(C)c1nc(Oc2ccccc2)nc(Oc2ccccc2)n1,"inconclusive: 5.01 µM [activator, single point]",
COc1ccc([C@H]2Cc3cccc(O)c3C(=O)O2)cc1O,"inconclusive: 10 µM [activator, partial curve]",
CC[n+]1c(C)cc2c(sc3ccccc32)c1C,inactive,
CC1(C)CC[C@]2(C(=O)n3ccnc3)CC[C@]3(C)[C@H](C(=O)C=C4[C@@]5(C)C=C(C#N)C(=O)C(C)(C)[C@@H]5CC[C@]43C)[C@@H]2C1,active: 1.12 µM,
O=C(Nc1nnc2n1CCS2)c1ccc(Br)o1,"inconclusive: 17.8 µM [activator, single point]",
Cc1ccc2nsnc2c1NC(=O)c1ccc([N+](=O)[O-])o1,"inconclusive: 3.16 µM [activator, single point]",
O=C(c1ccccc1F)N1CCN(c2ccc([N+](=O)[O-])c3cccnc23)CC1,inactive,
Cc1cc(N(C)C)ccc1N=Nc1ccc2ncccc2c1,"inconclusive: 15.8 µM [activator, partial curve, poor fit]",

Compound,Potency,activation
O=S(=O)(c1ccc(Cl)c(Cl)c1)c1snnc1-c1ccccc1,"inconclusive: 3.16 µM [activator, single point]",
CCOC(=O)c1nc(Nc2ccccc2C)c2ccccc2n1,inactive,
COC(=O)c1scc(C)c1NC(=O)c1ccccc1F,active: 12.6 µM,
O=[N+]([O-])c1ccccc1N/N=C\c1ccccc1F,"inconclusive: 3.16 µM [activator, full curve, poor fit]",
O=C(OCCC12CC3CC(CC(C3)C1)C2)c1ccc(NCc2cc(O)ccc2O)cc1,"inconclusive: 3.55 µM [activator, partial curve, poor fit]",
CN1CCc2c(sc3c2c(NCc2ccco2)nc2nnnn23)C1,"inconclusive: 12.6 µM [activator, single point]",
Cc1noc(C)c1C(=O)Nc1ccccc1C(=O)NCCc1ccccc1,inactive,
N#Cc1nc(-c2ccco2)oc1NCc1cccnc1,"inconclusive: 12.6 µM [activator, partial curve, poor fit]",
NC(=O)COc1ccc(C(=O)/C=C2/C(=O)Nc3ccccc32)cc1,"inconclusive: 28.2 µM [activator, single point]",
O=C(CC1S/C(=N/N=C/c2ccco2)NC1=O)Nc1ccccc1 (centres undefined),"inconclusive: 7.94 µM [activator, partial curve]",
COc1cc(/C=N/Nc2nc3ccccc3s2)ccc1O,"inconclusive: 3.16 µM [activator, full curve]",
Cc1cc2ncc(-c3cccs3)nc2cc1C,"inconclusive: 2.82 µM [activator, partial curve, poor fit]",
Cc1ccccc1NC(=O)CSc1nnc(-c2ccco2)c(-c2ccco2)n1,"inconclusive: 14.1 µM [activator, partial curve, poor fit]",
O=C(/C=C/c1cccc([N+](=O)[O-])c1)OCC(=O)N1CCOCC1,inactive,
CC(=O)c1sc(NC(=O)CCS(=O)(=O)c2ccc(F)cc2)nc1C,"inconclusive: 3.16 µM [activator, single point]",
O=C(N/N=C/c1ccc(Cl)c([N+](=O)[O-])c1)C1CC1,"inconclusive: 35.5 µM [activator, single point]",
O=C(Nc1ccc(F)c([N+](=O)[O-])c1)c1cccs1,"inconclusive: 22.4 µM [activator, partial curve, poor fit]",
O=[N+]([O-])c1ccc(/C=N/NC(=S)Nc2ccccc2)o1,"inconclusive: 20 µM [activator, single point]",
O=C(CCS(=O)(=O)c1ccccc1)Nc1nnc(C(F)(F)F)s1,"inconclusive: 22.4 µM [activator, single point]",
O=C(/C=C/c1ccco1)Nc1cccnc1,"inconclusive: 3.16 µM [activator, partial curve, poor fit]",
Cn1c(C(C#N)C(=O)c2ccco2)nc2ccccc21 (centres undefined),"inconclusive: 0.891 µM [activator, full curve, poor fit]",
CC(=O)C1=C(C)OC2(O)c3ccccc3C(=O)C12O (centres undefined),"inconclusive: 22.4 µM [activator, single point]",
